Among all 110,000 compounds or so, about 230 (0.21%) showed an effect of 50% or more. This is one part of the list.
Target: DPAP1 (Plasmodium falciparum, UniProt Q8IIJ9)
Assay: primary screen, percent inhibition; read by cleavage of a fluorogenic dipeptide substrate; higher = more effect of the substance
Set-up: species or system P. falciparum D10 trophozoite lysates; single well
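Further: 30 min substrate incubation versus DMSO and 10 µM JCP410 controls.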

Chain of DPAP1 (Q8IIJ9 whole entry, looked up): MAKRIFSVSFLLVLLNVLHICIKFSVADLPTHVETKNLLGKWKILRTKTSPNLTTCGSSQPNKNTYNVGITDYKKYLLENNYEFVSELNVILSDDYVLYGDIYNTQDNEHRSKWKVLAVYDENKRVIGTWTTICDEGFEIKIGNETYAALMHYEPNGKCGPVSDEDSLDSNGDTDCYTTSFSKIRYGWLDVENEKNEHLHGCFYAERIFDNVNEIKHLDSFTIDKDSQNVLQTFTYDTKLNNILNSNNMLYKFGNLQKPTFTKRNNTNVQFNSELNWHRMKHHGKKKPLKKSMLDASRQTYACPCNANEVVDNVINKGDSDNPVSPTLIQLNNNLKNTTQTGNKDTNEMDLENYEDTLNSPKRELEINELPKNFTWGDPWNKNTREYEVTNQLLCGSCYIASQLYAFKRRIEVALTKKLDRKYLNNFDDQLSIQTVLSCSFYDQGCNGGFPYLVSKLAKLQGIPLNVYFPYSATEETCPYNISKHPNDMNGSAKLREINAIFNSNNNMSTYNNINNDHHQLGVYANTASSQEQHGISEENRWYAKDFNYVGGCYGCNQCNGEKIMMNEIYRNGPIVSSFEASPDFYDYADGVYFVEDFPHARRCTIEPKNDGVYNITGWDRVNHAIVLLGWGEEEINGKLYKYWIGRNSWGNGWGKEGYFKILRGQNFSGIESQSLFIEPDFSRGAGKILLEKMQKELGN

SMILES | % Inhibition @ 10 uM [%]
Fc1ccc(CN2CCN(c3ccccc3)CC2)cc1F | 0.708
O=C(O)/C(=C/c1ccc2c(c1)OCO2)NC(=O)c1ccc(Br)cc1 | 23.4
O=C(C1CC1)N1CCN(c2ccc(F)cc2)CC1 | -4.03
COC(=O)c1c(NC2=NS(=O)(=O)c3ccccc32)sc2c1CCCC2 | 3.93
Cc1ccc(C)c(-c2csc(Nc3ccc(C)c(Cl)c3)n2)c1 | 0.912
Cc1ccc(-c2nnc(-c3cccs3)o2)cc1 | -3.77
CN1CCN(Cc2nnc(S)n2-c2cccc(C(F)(F)F)c2)CC1 | -0.687
O=C1NC(=O)N(Cc2ccccc2)C(=O)/C1=C/NC12CC3CC(CC(C3)C1)C2 | -4.67
COc1ccc(-c2noc(CN(C(=O)COc3cc(C)cc(C)c3)C(C)C)n2)cc1 | 4.41
O=C(Cc1ccccc1)N1CCN(C(=O)Cc2ccccc2)CC1 | -2.03
CC(C)C(=O)Nc1ccc2c(c1)C(=O)N(c1ccccc1)C2=O | -1.65
CSc1nc2sc3c(c2c2nnc(S)n12)CCN(Cc1ccccc1)C3 | 1.72
Sc1nc(NCc2ccc3c(c2)OCO3)c2ccccc2n1 | -2.56
CCOC(=O)c1c(N2C(=O)C3CC(C)=C(C)CC3C2=O)sc2c1CCCC2 (centres unmarked) | 17
COc1ccc(C2C(C#N)=C(N)OC3=C2C(=O)CC(C)(C)C3)c(OC)c1OC (centres unmarked) | -7.09
CCOc1c(/C=C2/SC(=O)NC2=O)cccc1OC | -6.41
COc1ccc(Cn2c(C(=O)O)c(CNC3CCC(C)CC3)c3ccccc32)cc1 (centres unmarked) | 2
Clc1ccc(Cl)c(SCCc2ccncc2)c1 | 1.9
CCCOc1ccc(C(=O)Nc2ccc(N3CCN(C(=O)c4ccco4)CC3)cc2)cc1 | 1.84
Nc1c(C(=O)NCC(=O)O)sc2nc(-c3cccnc3)cc(C(F)(F)F)c12 | 5.12
Cc1ccc(N(C(=O)c2ccco2)C2C=CS(=O)(=O)C2)cc1 (centres unmarked) | 5.03
Cc1ccc(CNC(=O)C2CCCN(c3nnc(-n4cccc4)s3)C2)o1 (centres unmarked) | -6.96
Cc1ccc(S(=O)(=O)N(C)CC(=O)Nc2ccc(C(N)=O)cc2)cc1 | 5.07
Cc1ccc(Cc2c(C)nc3c(C(=O)NC4CCCCC4C)cnn3c2C)cc1 (centres unmarked) | 1.27
Cc1ccc(C#N)c(SCc2ccccc2F)n1 | -0.268

SMILES | % Inhibition @ 10 uM [%]
Cc1cc2c(n1-c1ccc(C(=O)NCc3cccnc3)cc1)CCCC2 | 6.3
COc1ccc(CN(C(=O)COc2c(C)cc(C)cc2C)C2CCS(=O)(=O)C2)cc1OC (centres unmarked) | 1.92
O=C(NCC1NCCc2ccccc21)C1CCCCC1 (centres unmarked) | -1.74
N#CC1=C(N)Oc2[nH]nc(-c3cccs3)c2C1c1cccs1 (centres unmarked) | 2.32
COc1ccc(-c2onc(C)c2C)cc1S(=O)(=O)N1CCC(N2CCCCC2)CC1 | -1.52
COC(=O)C1=C(Cn2cncn2)NC(=O)NC1c1ccc(Cl)cc1 (centres unmarked) | -2.79
Cc1cc(N2C(=O)C3C4CCC(C4)C3C2=O)no1 (centres unmarked) | -1.2
COc1ccccc1CN(C(=O)Nc1cn(CC(C)C)c(=O)c2ccccc12)C1CCN(C)CC1 | 3.76
CCOc1ccc(N(CC(=O)N2CCc3ccccc3C2)S(=O)(=O)c2ccc(Cl)cc2)cc1 | 0.643
CC(C)=C1C2C=CC1C1C(=O)N(c3ccc(C)c(C)c3)C(=O)C21 (centres unmarked) | -0.736
CCOc1ccc2c(c1)nc(SCC(=O)c1ccccc1)n2C | 9.06
O=C(NCc1cccnc1)[C@@H](c1ccccc1)N1Cc2ccccc2C1=O | 2.93
O=C(C(Sc1ccccc1)c1ccccc1)N1CCOCC1 (centres unmarked) | 5.58
N#C/C(=C\c1ccc(Cl)cc1Cl)c1nc(-c2ccccc2)cs1 | 1.13
Cc1cc(C)c(C)c(S(=O)(=O)NCC(=O)N2CC(C)OC(C)C2)c1C (centres unmarked) | -2.39
CC(C)(C)NC(=O)N1c2ccccc2Sc2ccccc21 | -7.34
O=C(O)CCCC(=O)Nc1cccc2ccccc12 | -1.86
CCCN(CCC)CCNC(=O)c1nc(-c2cccc(F)c2)n2c1CCCCC2 | -7.18
COCCN1C(=O)c2[nH]nc(-c3ccccc3O)c2C1c1ccc(OC)cc1 (centres unmarked) | -3.12
CCCSCCCNC(=O)C1CCN(c2nn3c(=O)cc(C)nc3s2)CC1 | 7.53
O=C(C1=C(O)C(=O)N(CC2CCCO2)C1c1ccc(F)cc1)c1ccc(Br)cc1 (centres unmarked) | -1.45
C#CCSc1nc2c(c(=O)n1-c1ccccc1)C1(CCCCC1)Cc1ccccc1-2 | -7.15
CC(Nc1ccc([N+](=O)[O-])c2cccnc12)C12C[C@H]3C[C@@H](C1)C[C@@H](C2)C3 (some centres unmarked) | 2
O=C(Nc1nnc(C23CC4CC(CC(C4)C2)C3)s1)c1cccs1 | 3.25
Cc1ccc2nc3nc(C)cc(C)c3c(N)c2c1 | -2.26

SMILES | % Inhibition @ 10 uM [%]
CC(=O)c1c(CN(C)C23CC4CC(CC(C4)C2)C3)nc2n(C)c3ccccc3n12 | -2.81
COC(=O)C1=CN(CC23CC4CC(CC(C4)C2)C3)C=C(C(=O)OC)C1c1cccc(OC)c1OC | -2.5
O=C(NCc1noc2ccccc12)N1CCC2(CC1)OCCO2 | 1.41
CCc1nn2c(=O)cc(CSc3nc4sc5c(c4c(=O)n3C)CCCC5)nc2s1 | 39.1
N#Cc1c(N)nc2c(c1-c1ccccc1Cl)CCC2 | 1.38
CC(C)c1ccc(NC(=O)c2ccc(Cl)c([N+](=O)[O-])c2)cc1 | -1.92
O=C(NCc1cccnc1)c1ccccc1C(=O)c1ncc[nH]1 | 3.65
CCCCCCOc1ccc(NC(=O)c2c(O)c3ccccc3n(C)c2=O)cc1 | -0.413
Cc1cccc(CN2CCN(c3ncccn3)CC2)c1 | -8.28
COc1ccccc1-c1coc2cc(OCC(=O)O)ccc2c1=O | -1.92
Cc1cc(/C=C2\NC(=S)NC2=O)c(C)n1-c1ccc(N(C)C)cc1 | -1.2
COc1ccc(-c2cc(C(N)=O)c3ccccc3n2)cc1 | -3.06
CCC(=O)N1c2ccccc2N=C2CC(C)(C)CC(O)=C2C1c1cccc(OC)c1 (centres unmarked) | 2.38
Cc1nc2ccc(S(=O)(=O)N(C)CC(=O)N3CCc4ccccc4C3)cc2s1 | -2.25
COc1cc(C2C(C#N)=C(N)N(c3c(F)cccc3F)C3=C2C(=O)CC(C)(C)C3)ccc1O (centres unmarked) | 3.46
O=C(NCc1ccccc1)c1ccccc1-c1nc2ccccc2[nH]1 | 4.38
CCCn1c(=O)c2sccc2n2c(CCCC(=O)NCCc3ccccc3)nnc12 | -8.11
CCn1c(CSc2nc3ccccc3s2)nc2ccccc21 | 0.484
CCCOc1ccc(C(=O)C2=C(O)C(=O)N(CCCN(C)C)C2c2ccc(OC)c(OC)c2)c(C)c1 (centres unmarked) | 1.52
C=CCn1c(SCC(=O)Nc2nccs2)nc2sc(CC)cc2c1=O | -1.84
CCN(CC)CCNCc1nc2ccccc2c(=O)n1-c1ccc(F)cc1 | 3.58
CCCc1nc2nc(C)c(NS(=O)(=O)c3ccc(C)cc3C)c(O)n2n1 | 0.454
Cc1ccc([N+]2=C3CCCCCN3CC2(O)c2ccccc2)cc1 (centres unmarked) | -1.84
CN(C)CCCN(CCCN(C)C)Cc1cccc2ccccc12 | -5.65
COc1ccc(-c2ccc(/C=C3/SC(=O)NC3=O)o2)cc1Cl | 13

SMILES | % Inhibition @ 10 uM [%]
Cc1ccc(/C=C(\NC(=O)c2ccccc2)C(=O)NC2CCN(Cc3ccccc3)CC2)o1 | 4.33
C=Cc1ccc(Cn2c(C)c(CNCCc3ccc(OC)c(OC)c3)c(C(=O)O)c2C)cc1 | 8.86
Cc1cccc(OCCSc2nc(C)cc(O)n2)c1 | 1.7
OC(CN1CCOCC1)Cn1ccc2ccccc21 (centres unmarked) | -3.53
CCCNC(=O)c1cc(S(=O)(=O)N2CCCCC2)c[nH]1 | -6.25
c1ccc(C2=C(c3ccccc3)N3CCN=C3S2)cc1 | 23.4
O=C(CCc1nnc2n(Cc3ccccc3Cl)c(=O)c3ccccc3n12)NCc1ccccn1 | 0.981
Cc1nn(C)c(Cl)c1/C=C/C(=O)N[C@@H](CC(C)C)C(=O)NCC#N | -3.14
O=C(Cn1ncc2c1-c1ccccc1OC2)Nc1cccnc1 | -6.3
COc1ccc(OCc2nc(C#N)c(NC(C)c3ccccc3)o2)cc1 (centres unmarked) | -0.99
Cc1ccccc1/C=C1/SC(Nc2ccccc2O)=NC1=O | -5.7
CCCN1C/C(=C\c2ccc(OC)cc2)C(=O)/C(=C/c2ccc(OC)cc2)C1 | 23
Clc1ccc(-n2ncc3c(N4CCN(Cc5ccccc5)CC4)ncnc32)cc1 | 8.36
CC(C)(C)c1ccc(OCC(=O)Nc2nccs2)cc1 | 0.709
Oc1ccc(Nc2nc(-c3ccncc3)cs2)cc1 | 0.0538
O=C(NC1CCCC1)c1cccc(S(=O)(=O)NC2CCCC2)c1 | -3.72
CC(C(=O)c1ccccc1)C1(O)C(=O)N(C)c2ccccc21 (centres unmarked) | -1.98
O=C(c1ccc(-n2ccc3ccccc32)s1)N1CCC(C(=O)N2CCC3(CC2)OCCO3)CC1 | 4.27
COc1ccc(OCC(O)CNC2CC(C)(C)NC(C)(C)C2)cc1 (centres unmarked) | -2.75
CCOC(=O)N1CCC(NC(=O)c2ccc(CNS(=O)(=O)c3ccc(F)cc3)cc2)CC1 | -0.256
COc1ccc(-c2cc(O)oc3nnc(C)c2-3)cc1 | 0.503
COc1ccccc1Nc1nc(Cl)nc(C)c1[N+](=O)[O-] | -4.21
COc1ccc(C2c3c(oc4ccc(C)cc4c3=O)C(=O)N2Cc2ccc3c(c2)OCO3)cc1OC (centres unmarked) | -3.13

— publication PMC6919601, “Identification of Plasmodium dipeptidyl aminopeptidase allosteric inhibitors by high throughput screening” (PLoS ONE, 2019)
